Source: patent US11660328B2, “GLP-2 analogs and peptibodies for administration before, during or after surgery” (TAKEDA PHARMACEUTICAL COMPANY LIMITED, priority 2017, dated 2023)

Test system: small intestine
Experiment: Histology study of villi length and crypt depth (H&E sections, imagescope)
Assay type: in vivo, female CD-1 mice
Conditions: after administration vs without treatment, FIGS. 1-3
Method: Various doses of GLP-2 peptibody B264 were analyzed to assess the pharmacodynamic plateau, with the primary endpoint a measurement of the small intestinal weight relative to the total body weight and a histology study of the length of villi. 11 groups of six female CD-1 mice each were formed. [table] For histology, four micron paraffin sections were prepared for H&E and Ki67 IHC staining. After whole slide scanning, an imagescope was used to measure villi length and crypt depth, and to analyze Ki67. The antibody against Ki67 is a rabbit antibody sold by Adcam®, catalog number ab 616667. The antibody was used at a working concentration of 1:100 and was detected using a Leica® Refine Kit. […] See, e.g., Example 13 of U.S. Provisional Application No. 62/548,601, filed Aug. 22, 2017 for more data and examples with respect to GLP-2 peptibody B264, GLP-2 peptibody […], and a GLP-2[[…]] peptide.

B1: GLP-2 peptibody B264: GLP-2 peptibody having the amino acid sequence of SEQ ID NO: 2 (GLP-2[A2G]-linker-IgG1 Fc fusion) (protein, listed as Homo sapiens)
chain: HGDGSFSDEMNTILDNLAARDFINWLIQTKITDGGGGG[letters of human IgG1 Fc with changes left out]
crypt depth in the small intestine: increased crypt depth | villus height (small intestine): increased villus height
